In the supplement of paper PMC12632987:
Whole data set: some 2,300 sequences, median “median log2 fold change of GCK-ALFA target abundance (FLAG IP / Myc IP barcode read proportion)” near 0.095, cut for the lowest 2% near -0.47. This is one part of the list.

B1: LC3A_3_1572 (protein)
chain: MEELIEESLERLREAGFSEEVIEAAREAFEALAEKGLEESIKAVTETLLELKDAPEELLLDLLEDVKELVETDKSSKEELEKKIKELLRVYRNESEIIEL
B2: LC3A_28_1154 (protein)
chain: SANVEAAKKQIDEDAEKDKDEEEVYLNVTITSEDTVEEAKEIMEHVEEVVEKLKDKKKIYVVITFEEPVSQEVLDTVLEKAEEIEKKFPNVSVIIALPED
B3: LC3A_free_39_2285 (protein)
chain: SAAELEKAVAELKKLLDEDPNVTEEEKKIILEFAKKSLEAAKAIVEAVKEIKEAGGDVGEFAKRIAEKIKELEEKGLSLEERAKEVIELARDLKNLIPID
B4: LC3A_3_1666 (protein)
chain: AEERIEEALEFLRAAGKSEETLEAARRALEALAERGYEEALETFIELLRELAGLSDETLLALAEDVLALVETSDLSEEELTARIRELARTARAEEEIIEL
B5: LC3A_28_1216 (protein)
chain: SAIDAELARARAEMAAAKAAGEEALITIRIPATATLADVERAMAALREIVAEVADLPSIDIIIEFEAGVSQEVIDAAADGGEEIEKEFPNVTVIIALDEE
B6: LC3A_6_2061 (protein)
chain: GKLEYTIDILLKPETLEEAKEKSLALIEEAKAKLEAEMAAIGEKVLEFKVELSEDGELITVTVVVENTPEAKAATDAVVDELVERLEPYASAIMESREVL
B7: LC3A_28_1285 (protein)
chain: SEIDKNIEKAIEEAKKAVEEGKSAVITINVPGNATQEEIDKVIEAMKEIAEILKDVPNQAIVVNVDGGVKQEYIDKLADAAEEIEKKYPNVTVIIALDED
B8: LC3A_147_452 (protein)
chain: ATYVITVDVLLRNDPELAERIEEEIKKIGEENGAEVEVEREEIQETPTTTEYFLRVTLKTTDEEKALKALQEVSELLDRTAEEHPESFLGAMISFEKIED
B9: LC3A_45_1986 (protein)
chain: MYEATVSLLVPKELAEKALEVAKKAMEELKKKYGPELKVNEERLEKTYEASKNEEDVYLEIDITHPDEQVALDAAVELEDRIRKELGDNVASIISYKKIP
B10: LC3A_59_2023 (protein)
chain: DAELEALIAAARAAKDDPEALARVILEGFELVRDDPEKLKRLKELLVKMLVEEGLLSEELAKELVEDIEEIVKTIADREKALEEILELLRVYLNENEIIE
B11: LC3A_free_0_2122 (protein)
chain: KKTVVEVVVILDESTSKETAEEIYEKLKEKAEELAKEAGAEVESSLSEVDGSYIITIKITLPTDDIDKALELEDKLVETAEEIAKEAGVEATIYSSVYLE
B12: LC3A_free_8_2535 (protein)
chain: NKQEFVNKALELLDKFEEELVKKMKELGKSRLDILDVELLIGETKIEVISNSDKPQEEILEVVKEGLKEIVEYAKTLGEELAEFAKKKAEEVLKELEESL
B13: LC3A_45_1922 (protein)
chain: MYEATLDLLVPKELAEEAYELIKKLLEELEKKRGPNFKVDYETLDASYEASKDEEDVYLEVKIYAPTEEEALDAAIEIEEELSKELGGKVASIISVKKVP
B14: LC3A_45_1921 (protein)
chain: MYKATVDLLVPKELLEKVLETIREKAEEIKKKTNGKVEFDLEGLEKSAEETKDEEEVYLELDIYAEDKQLALDAADEIVDAIEEKTGKKIAAIISVEELP
B15: LC3A_147_436 (protein)
chain: YEAVVDIDILTKNAKEEVLKALEELAEKLRAQGYEVKLEIEVEELENGETFIDATITVKAPTKEEAQAAADYIVDSVDELEEKLKDKILGSIISVEISEA
B16: LC3A_free_8_2549 (protein)
chain: NSQKLTTTVTAKLDEMEERLAEKAKELGLSQLDINELELLIGEAIIDVIELQDKSPEEILEELKEDLEEIIEYAKELGEELAKLAKELSEEILKEAEELL
B17: LC3A_6_2063 (protein)
chain: KLVTATIDMLVKPEYVDRAEEIAEEFKAALTAALEKVAAKTGAKLKSVEYEIDENGEFITVTVTVEADEKAVPAIQKAVDDVVDSFEDKFSASMISYEVE
B18: LC3A_45_1979 (protein)
chain: MYLATVDILVPRELADEAYAAAKAAADELEARYGDKVRVNRAVLDASYAATKDEEDVYLRVEIYAPDEQLALDAADELVDRLEEALGDKVAAIISIEEVP
B19: LC3A_3_1849 (protein)
chain: MEEIIKEILELLKSLGRSEETIKAALELANLLAEKGYKKALEKLLEELKELKDLSDEILLDMFNDILDAVKNEDLNEEEVIKLIEEEARIAKNEQEIIEL
B20: LC3A_3_1552 (protein)
chain: MEKIRAETLQALREAGKSQEVIDAAQATFDALKERGYEEAAKVFAEEARELLDLPDELLLTFFNDVLNYILTNDVSEEELIEYIKEVARTVRNEGEIEEL
B21: LC3A_3_1734 (protein)
chain: MEEILEAAREELEELGFSEETIEAALEVIKELLERGFLEAVEELLRELRRLKHLPDEIILAMLEDILEYVKKNDINEEEAIELIREEARIAENESEIEEL
B22: LC3A_3_1623 (protein)
chain: LEEEIEETLKELKEAGQSEETLEALKETVELLLEKGYEEAAKTLLEEMRELKDLPSEILLAAIEEVKEVVETEDLNEEELIERIKEIFRIARNEGEIIEL
B23: LC3A_free_8_2465 (protein)
chain: ANQKLVDALTAQLDKLEEELEKKAKELGLSELDILELKLEIGSVIAEVISLVDESPEAIVKAFEEGMERVIELAKELSEELAKLAEAGKEEAKKEAEKLL
B24: LC3A_28_642 (protein)
chain: MEIEEQIEKALKEAKEAKEKGEPTVITLTLDGNATEEDVERLIEALEEIAEILESVPGSAIIIDVTGDVPEEHINRLADKAEEIEEKYPNVTVIIALEER
B25: LC3A_free_39_2222 (protein)
chain: SEEEIEKLIKEVAKESGIDYEELKKKIEEIQKIAKLSLEQIKEIVEGILKAVKAGADAKEIVEESLELAKKLVEEGKSPEEIKEEILELIEDYRNLVPLD
B26: LC3A_28_1029 (protein)
chain: MELEKNAKEAIEEAKKLFEKGEEAVVTLNVPKIPKEEAVKKVKETLEELIKLSKKYGNKKVTVVINYDGDQETADAIADVAEEAEKKDPNLTVILALSEE
B27: LC3A_3_1876 (protein)
chain: MEEEIKKTLEELKKAGASEETLKTFKEVAEKLKERGYEEALKTLIEEVKELMGTSDEVLLDFLKEVLEVLETEDLSEEELIERIKELARLALNEAEIEEL
B28: LC3A_28_997 (protein)
chain: SAIDKQIEAALAQAKEAAAAGEPVVITITITSTATQADIDKVMATMEEIAEILKDIKGSAIIVNIEAGVSQELQDKIIDHAEEIEKKYPNITVIIALDED
B29: LC3A_28_671 (protein)
chain: SALEEQLEKALAEAKKLAAKGEPGVIVIEVPGDATEEEIERLIKTLEEIAEILKDVKGSAIVIELDKDLKEEHRQRIIDAAERINEKYPNVTVIIAMEER

Target: MAP1LC3A, Q9H492
Test: median log2 fold change of GCK-ALFA target abundance (FLAG IP / Myc IP barcode read proportion) (log2 ratio); each designed protein is fused to an ALFA-tag nanobody in HEK293 cells to bring the named protein to FLAG-tagged glucokinase (GCK); Myc marks an untargeted standard; higher = target protein stabilised (more abundant)
Conditions: target protein: 3xFLAG-MCP-GCK-ALFA reporter; HEK293 landing pad (RPLP)
Outline: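 Binders fused to an ALFA nanobody were recombined as a library into HEK293 landing-pad cells, which were induced with 2 μg mL^−1 doxycycline and then transfected to express a FLAG-tagged target and a Myc-tagged standard. After 48 h, circular RNA barcodes recovered by anti-FLAG and anti-Myc immunoprecipitation of lysates were reverse transcribed, amplified and sequenced. Each binder's target abundance is the median log2 ratio of FLAG to Myc barcode read proportions, from barcodes present at ≥10^−7 in both replicates, binders carrying ≥3 barcodes per replicate, a 10^−6 pseudocount and pooled replicates.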

Binder	median log2 fold change
B1	0.0759
B2	-0.142
B3	0.326
B4	0.277
B5	0.0879
B6	0.0736
B7	0.174
B8	-0.0647
B9	0.0943
B10	0.203
B11	-0.221
B12	-0.0681
B13	-0.405
B14	0.0987
B15	0.233
B16	-0.236
B17	0.00737
B18	-0.00345
B19	0.217
B20	0.25
B21	-0.0692
B22	0.184
B23	-0.0403
B24	-0.133
B25	0.0698
B26	0.157
B27	0.26
B28	-0.0479
B29	0.0757
